From PubChem BioAssay AID1159614 (National Center for Advancing Translational Sciences (NCATS), 2016)
The whole screen tested about 45,000 compounds, of which about 65 (0.1%) were called active. Calls follow the shape of the dose curve; as a rule, active = well fitted activation curve with a large enough effect; inconclusive = small, poorly fitted or top-dose-only effect; inactive = no such curve, though single readings can be large or run the other way. The list shows a part of the results.
Also: 0% is about no effect; nearly all actives have a fitted effect of over 65% in size.

What follows are compounds tested against Galactocerebrosidase (Homo sapiens) (UniProt P54803) (assay: A Novel Cell-Based Assay to Identify Small Molecules for B -Galactocerebrosidase). Conditions: 145M-Twi-hGALC-G270D cells (Twitcher mouse brain line with human GALC G270D), HMU-beta-Gal fluorescence, 48 h; series mostly up to 57.5 µM; activation: at the top concentration.
Chain of UniProt P54803 (P54803 whole entry, looked up): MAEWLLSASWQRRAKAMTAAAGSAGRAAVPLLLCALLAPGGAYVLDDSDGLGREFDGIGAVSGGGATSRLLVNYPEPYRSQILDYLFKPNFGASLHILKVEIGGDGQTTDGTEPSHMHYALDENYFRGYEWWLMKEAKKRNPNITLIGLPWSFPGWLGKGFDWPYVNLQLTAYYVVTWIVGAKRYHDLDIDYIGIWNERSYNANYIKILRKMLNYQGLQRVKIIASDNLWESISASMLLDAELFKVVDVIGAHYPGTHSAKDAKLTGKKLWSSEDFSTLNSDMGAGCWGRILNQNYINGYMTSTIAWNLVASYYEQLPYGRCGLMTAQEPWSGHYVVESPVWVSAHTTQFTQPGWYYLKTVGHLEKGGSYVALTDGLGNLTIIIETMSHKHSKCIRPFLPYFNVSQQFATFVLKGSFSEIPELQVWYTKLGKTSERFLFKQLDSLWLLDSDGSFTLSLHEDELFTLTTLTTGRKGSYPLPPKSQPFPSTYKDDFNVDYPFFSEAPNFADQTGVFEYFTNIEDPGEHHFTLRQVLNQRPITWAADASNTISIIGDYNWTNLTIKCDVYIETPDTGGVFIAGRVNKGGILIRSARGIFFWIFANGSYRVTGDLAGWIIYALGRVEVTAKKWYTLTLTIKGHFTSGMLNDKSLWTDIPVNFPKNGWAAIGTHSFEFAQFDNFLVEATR
Method in brief: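 Mutant human GALC (G270D), stably expressed in a Twitcher mouse brain cell line lacking endogenous GALC, is measured in live-treated cells via 6-hexadecanoylamino-4-methylumbelliferyl-β-galactoside hydrolysis (0.1 mM final, pH 5.2) with fluorescent detection.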
`COc1cccc(NC(=O)c2oc3ccc(S(=O)(=O)N(C)C4CCCCC4)cc3c2C)c1` was tested, and the “activation” value was inactive: 1.02%.
With `Cc1ccc(C)c(NC(=O)CSc2nc3ccccc3nc2N2CCOCC2)c1` the “activation” value was inactive: -10.2%.
With `CCSc1ccccc1C(=O)N1CCN(c2nc3ccccc3s2)CC1` the “activation” value was inactive: -10.4%.
`COc1ccccc1C(=O)Nc1cccc(OCc2cc(=O)n3ccccc3n2)c1` was tested, and the “activation” value was inactive: -0.875%.
`COC(=O)c1ccc(NC(=O)c2cnn(-c3ccc(Cl)cc3)c2C2CCN(C(=O)OC(C)(C)C)CC2)cc1` was tested, and the “activation” value was inactive: 10.6%.
`CCC1CCCCN1CCCNC(=O)c1cn(C)c2ccc(S(=O)(=O)N(C)C3CCCCC3)cc2c1=O` (centres undefined) was tested, and the “activation” value was inactive: -10.5%.
For `O=C1CC(c2ccc(Cl)cc2)CC(=O)N1`, the “activation” value was inactive: -16.9%.
`COc1cccc(N2CCN(C(=O)c3cccn3-c3nnc(N4CCCCC4)s3)CC2)c1` was tested, and the “activation” value was inactive: -18.6%.
In the case of `O=C(CSc1nccn1Cc1ccc2c(c1)OCO2)Nc1ccccc1F`, the “activation” value is reported as inactive: -14.3%.
In the case of `COc1cc(NC(=O)CCn2nc(C)cc2C)cc(OC)c1OC`, the “activation” value is reported as inactive: 0.94%.
In the case of `CCCn1c(=O)sc2cc(NC(=O)c3ccccc3Cl)ccc21`, the “activation” value is reported as inactive: 6.39%.
In the case of `Cc1c(Cl)cccc1NC(=O)Nc1c[nH]c(=O)[nH]c1=O`, the “activation” value is reported as inactive: 1.13%.
For `Cc1cccc(NC(=O)CSc2nc3c([nH]c4ccccc43)c(=O)n2-c2cc(C)cc(C)c2)c1`, the “activation” value was inactive: -6.15%.
`CC1CCCCN1C(=O)CSc1nc(-c2ccccc2)no1` (centres undefined) was tested, and the “activation” value was inactive: -2.06%.
For `COc1cc(/C=C(/C#N)c2nc(-c3cc4ccccc4oc3=O)cs2)ccc1O`, the “activation” value was inactive: -10.1%.
In the case of `CCOC(=O)C1=C(CN2CCC(C)CC2)NC(=O)NC1c1ccc(OC(C)C)cc1` (centres undefined), the “activation” value is reported as inactive: -3.43%.
In the case of `CCOC(=O)c1ccccc1NC(=O)CSc1nc(=O)[nH]c2c1CCCC2`, the “activation” value is reported as inactive: -11.5%.
`CSc1cccc(-n2nnc(-c3nsc(NC(=O)c4cccs4)n3)c2C)c1` was tested, and the “activation” value was inactive: -8.22%.
With `COc1cccc(CNC(=O)Cn2c(=O)ccc3cc(S(=O)(=O)N4CCCC4)ccc32)c1` the “activation” value was inactive: -6.57%.
With `CCc1ccc(S(=O)(=O)c2nnn3c2nc(N(C)Cc2ccccc2)c2cc(Cl)ccc23)cc1` the “activation” value was inactive: -0.45%.
In the case of `COc1ccc(Nc2nc3c(S(=O)(=O)c4ccccc4)nnn3c3ccc(Cl)cc23)cc1`, the “activation” value is reported as inactive: -22.9%.
`Cc1cc(=O)n(CC(=O)N2CCCCC2)c2c1c(C)nn2C` was tested, and the “activation” value was inactive: -6.09%.
With `CCN(CC)CCCNC(=O)c1cn(CC)c2ccc(S(=O)(=O)N3CCC(C)CC3)cc2c1=O` the “activation” value was inactive: -14.7%.
`CCc1ccc2occ(CC(=O)N(Cc3ccccc3)C3CCS(=O)(=O)C3)c2c1` (centres undefined) was tested, and the “activation” value was inactive: -7.35%.
With `Cc1ccc(NC(=O)CN2C(=O)C(c3ccccc3)=NC23CCCCC3)cc1C` the “activation” value was inactive: 1.28%.
For `CCS(=O)(=O)N1CCCc2cc(C(=O)Nc3cc([N+](=O)[O-])ccc3C)ccc21`, the “activation” value was inactive: -26.3%.
In the case of `COc1ccc(-n2c(C)nc3c(cnn3-c3ccc(C)c(C)c3)c2=O)cc1Cl`, the “activation” value is reported as inactive: -4.07%.
`CC(C)(C)c1cc(C=O)cc(C(C)(C)C)c1O` was tested, and the “activation” value was inactive: -10.7%.
`COc1ccc(NC(=O)Cn2c(=O)n(CCCC(=O)NCc3ccccc3Cl)c(=O)c3ccccc32)c(OC)c1` was tested, and the “activation” value was inactive: 2.35%.
In the case of `Cc1cccc(CNC(=O)c2ccc3c(c2)N(C)CCS3)c1`, the “activation” value is reported as inactive: -3.82%.
`CCc1ccc(C(c2ccccc2)c2c(C)[nH]c3ccccc23)s1` (centres undefined) was tested, and the “activation” value was inactive: 15.7%.
For `Cc1cc(C)c(NC(=O)CSc2nc3ccccc3c3nc(-c4ccccc4)nn23)c(C)c1`, the “activation” value was inactive: -19.8%.
For `Cc1ccc(C)c(N2CCN(S(=O)(=O)c3ccc4[nH]c5c(c4c3)CCCC5)CC2)c1`, the “activation” value was inactive: -15.5%.
With `COc1ccc(CNCc2c(C(=O)O)c(C)n(Cc3ccccc3C)c2C)cc1OC` the “activation” value was inactive: -11.7%.
For `COc1ccc(N2CCN(c3ncccc3-c3nc(-c4ccccc4C)no3)CC2)cc1`, the “activation” value was inactive: -1.95%.
With `CCOC(=O)c1sc2ccccc2c1S(=O)(=O)Nc1cc(OC)ccc1OC` the “activation” value was inactive: -10.1%.
For `Cc1ccccc1CNC(=O)Cn1nc(C)c2nn(-c3ccc(Cl)cc3)c(C)c2c1=O`, the “activation” value was inactive: -18.6%.
In the case of `Fc1ccc(N2CCN(Cc3nnc(-c4ccccc4Cl)o3)CC2)cc1`, the “activation” value is reported as inactive: -16.2%.
With `O=C1c2[nH]nc(-c3ccccc3O)c2C(c2cccc(OCc3ccccc3)c2)N1CCCO` (centres undefined) the “activation” value was inactive: -6.27%.
With `CCc1cccc(C)c1Nc1c(-c2ccc(F)cc2)nc2sccn12` the “activation” value was inactive: 2.21%.
With `COc1ccc(Cn2c(SCc3ccc(C(=O)NC4CCCCC4)cc3)nc3ccncc32)cc1` the “activation” value was inactive: -10.1%.
With `COc1ccc(CNS(=O)(=O)c2ccc(C(=O)N(C)C)s2)cc1` the “activation” value was inactive: -10.5%.
In the case of `COc1ccccc1N1CCN(c2nc3c(S(=O)(=O)c4ccccc4)nnn3c3ccc(Cl)cc23)CC1`, the “activation” value is reported as inactive: -13.9%.
For `CCOC(=O)c1scc(-c2ccccc2)c1S(=O)(=O)Nc1ccccc1OC`, the “activation” value was inactive: 0.623%.
With `N#Cc1nc(-c2ccc(COc3ccc(Cl)cc3)o2)oc1N1CCCCC1` the “activation” value was inactive: -12.9%.
With `Cc1ccc(CNc2nc(-c3ccco3)nn2C(=O)c2ccccc2[N+](=O)[O-])cc1` the “activation” value was inactive: -5.21%.
With `Cc1ccc2c(=O)c(C(=O)c3ccccc3)cn(CC(=O)NCc3ccccc3)c2n1` the “activation” value was inactive: -18%.
In the case of `CCOc1ccc(NC(=O)CSc2ncc(S(=O)(=O)c3ccc(F)c(C)c3)c(=O)[nH]2)cc1`, the “activation” value is reported as inactive: -9.14%.
In the case of `COc1ccc(S(=O)(=O)N2CCC(Oc3cccc(C(F)(F)F)c3)CC2)cc1OC`, the “activation” value is reported as inactive: 8.22%.
